# Measurements from PubChem BioAssay AID504332 (National Center for Advancing Translational Sciences (NCATS), 2011).
# Where “and” joins values, the source holds several entries; their conditions need not be identical. Equal values may be shown once. Screen size: about 350,000 compounds; about 31,000 (8.9%) were called active. The shares of active, inactive and inconclusive entries below differ from those in the screen. Calls follow the shape of the dose curve; as a rule, active = well fitted inhibition curve with a large enough effect; inconclusive = small, poorly fitted or top-dose-only effect; inactive = no such curve, though single readings can be large or run the other way. A potency beside an inconclusive call is a rough fit, not a confirmed value.
# Target: Histone-lysine N-methyltransferase EHMT2 (Homo sapiens) (UniProt Q96KQ7)
# Test: qHTS Assay for Inhibitors of Histone Lysine Methyltransferase G9a; also: nearly all actives have a fitted effect of over 75% in size
# Conditions: G9a H3K9 monomethylation, AlphaScreen, 2 h; activity, negative = inhibition: at 59 µM (top of the series) unless noted
# Procedure, shortened: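 Compounds were preincubated with 20 nM G9a for 15 min, after which biotinylated H3K9 peptide (500 nM) and SAM (20 uM) started a 2 h room-temperature reaction. Monomethylated product was quantified by antibody-based AlphaScreen chemiluminescence.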
# % is scaled to controls: 0 for no effect and ±100 for the full control effect; potency is read from the fitted curve at half-maximal effect; tags tell the direction and shape of the fitted curve.
# Chain of UniProt Q96KQ7 (Q96KQ7 whole entry, looked up): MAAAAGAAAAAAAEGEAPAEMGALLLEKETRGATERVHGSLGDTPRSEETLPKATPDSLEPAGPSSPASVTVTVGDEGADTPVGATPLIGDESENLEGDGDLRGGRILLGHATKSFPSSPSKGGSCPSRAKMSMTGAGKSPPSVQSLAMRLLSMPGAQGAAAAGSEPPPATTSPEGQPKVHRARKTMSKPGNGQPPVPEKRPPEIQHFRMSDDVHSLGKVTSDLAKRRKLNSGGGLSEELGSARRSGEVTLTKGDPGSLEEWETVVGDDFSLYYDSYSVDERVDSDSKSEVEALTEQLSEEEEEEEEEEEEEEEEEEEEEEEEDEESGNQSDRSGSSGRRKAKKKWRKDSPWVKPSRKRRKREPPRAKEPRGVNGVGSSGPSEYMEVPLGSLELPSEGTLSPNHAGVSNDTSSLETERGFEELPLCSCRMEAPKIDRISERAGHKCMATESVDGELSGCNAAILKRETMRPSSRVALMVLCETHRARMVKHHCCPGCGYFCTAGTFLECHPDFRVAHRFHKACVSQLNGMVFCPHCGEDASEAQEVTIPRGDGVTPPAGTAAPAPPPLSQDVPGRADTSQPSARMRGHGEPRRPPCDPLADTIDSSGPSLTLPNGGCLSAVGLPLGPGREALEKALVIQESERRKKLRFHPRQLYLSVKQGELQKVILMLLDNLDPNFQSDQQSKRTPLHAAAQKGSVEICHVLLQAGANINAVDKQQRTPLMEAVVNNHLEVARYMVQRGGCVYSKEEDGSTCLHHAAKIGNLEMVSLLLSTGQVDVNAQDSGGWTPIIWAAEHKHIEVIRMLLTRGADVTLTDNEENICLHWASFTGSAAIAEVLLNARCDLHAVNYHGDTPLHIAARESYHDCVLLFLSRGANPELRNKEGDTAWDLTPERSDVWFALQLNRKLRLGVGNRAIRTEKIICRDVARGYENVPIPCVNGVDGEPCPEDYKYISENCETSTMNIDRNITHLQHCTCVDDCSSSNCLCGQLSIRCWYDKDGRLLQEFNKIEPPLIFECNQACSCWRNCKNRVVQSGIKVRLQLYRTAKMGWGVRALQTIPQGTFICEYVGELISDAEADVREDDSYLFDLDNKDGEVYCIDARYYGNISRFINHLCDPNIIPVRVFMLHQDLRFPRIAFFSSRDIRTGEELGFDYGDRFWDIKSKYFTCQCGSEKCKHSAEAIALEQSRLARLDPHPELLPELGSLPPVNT
SMILES,Potency,"activity, negative = inhibition"
C=Cc1ccc(Cn2c(=O)n(-c3cccc(Cl)c3)c(=O)c3c4c(sc32)CN(C(C)=O)CC4)cc1,"inconclusive: 39.8 µM [inhibitor, partial curve, poor fit]",
O=C(c1ccco1)N1CCN(C(=O)c2ccc(COc3ccc(F)cc3)o2)CC1,"inconclusive: 56.2 µM [inhibitor, partial curve, poor fit]",
Cc1cc(C)c(NC(=O)Cn2nnc(S(=O)(=O)c3ccc(C)c(C)c3)c2N)c(C)c1,"inconclusive: 25.1 µM [inhibitor, partial curve, poor fit]",
Cc1ccc(S(=O)(=O)CC#CCOC(=O)c2ccc([N+](=O)[O-])cc2)cc1,"inconclusive: 1.58 µM [inhibitor, partial curve, poor fit]",
Cc1ccc(OCCn2cc(/C(N)=N/O)c3ccccc32)cc1C,,inactive: -8.33%
CC(C)Oc1ccc(C(CC(=O)O)NC(=O)CSc2ncn[nH]2)cc1 (stereo not drawn),"inconclusive: 79.4 µM [inhibitor, single point]",
NC(=O)CSc1nnc(-c2ccc(S(=O)(=O)N3CCCC3)cc2)n1Cc1ccco1,"inconclusive: 50.1 µM [inhibitor, partial curve]",
COc1ccc(-n2cc(CNCC3CCOCC3)c(-c3cccc(F)c3)n2)cc1,,inactive: -2.75% [at 102 µM]
CCCCN(CC)c1nc(-c2ccccc2F)nc2ccccc12,,inactive: 44.7%
Nc1ccccc1SCc1ccccc1Cl,"inconclusive: 50.1 µM [inhibitor, partial curve, poor fit]",
CCn1c(SCC(=O)NCc2ccco2)nc2ccccc2c1=O,"inconclusive: 89.1 µM [inhibitor, partial curve, poor fit]",
Cc1cccc(N2CCn3c2nc2c3c(=O)n(C/C=C/c3ccccc3)c(=O)n2C)c1,"inconclusive: 11.2 µM [inhibitor, partial curve, poor fit]",
Cn1cccc1C(=O)C(=O)Nc1ccccc1C(F)(F)F,"inconclusive: 28.2 µM [inhibitor, partial curve, poor fit]",
CCN(CC)C(=O)c1ccc(S(=O)(=O)N2CCC(c3nc4ccccc4s3)CC2)cc1,"inconclusive: 39.8 µM [inhibitor, single point]",
S=C1NC2=C(CCCC2)C2(CCCCC2)N1,active: 7.08 µM,
Cc1ccc(S(=O)(=O)N2CCN(C(=O)Cn3cnc4c3c(=O)n(C)c(=O)n4C)CC2)cc1C,"inconclusive: 35.5 µM [inhibitor, single point]",
N#Cc1c(-c2ccco2)cc(-c2ccccn2)nc1N,"inconclusive: 2.82 µM [inhibitor, partial curve, poor fit]",
CCCCN(C(=O)CSc1nnc(-c2ccc(OC)cc2)n1C(C)C)c1c(N)n(Cc2ccccc2)c(=O)[nH]c1=O,active: 10 µM,
Cc1cccc(CNc2ccnc(-c3cccc(C#N)c3)n2)c1,,inactive: 0.943% [at 0.501 µM]
CCOc1ccc(-c2cc(CCCC(=O)N3CCN(c4ccc(OC)cc4)CC3)no2)cc1,"inconclusive: 28.2 µM [inhibitor, full curve, poor fit]",
O=C(Cn1cc2c(n1)CCCCC2)Nc1c(F)c(F)cc(F)c1F,"inconclusive: 89.1 µM [inhibitor, single point]",
O=C(Cc1ccccc1)Nc1c(C(=O)Nc2ccccc2F)oc2ccccc12,,inactive: 4.01%
N#CC1=C(N)N(c2ccccc2)C(=O)C1,"inconclusive: 2.24 µM [inhibitor, partial curve, poor fit]",

SMILES,Potency,"activity, negative = inhibition"
COc1cccc(CNC(=O)CCC(=O)N2Cc3cccc(OC)c3Oc3ncccc32)c1OC,"inconclusive: 3.98 µM [inhibitor, partial curve, poor fit]",
Cc1ccc(NC(=O)CSc2nc(=O)n(CCCN(C)C)c3c2CCC3)c(C)c1,,inactive: -27.4% [at 102 µM]
O=C(Nc1ccccc1N1CCCC1)C1CCN(C(=O)c2ccc(Cl)cc2)CC1,active: 50.1 µM,
O=C(Cn1ncc2c(=O)oc3ccccc3c21)NCc1ccc(Cl)cc1,,inactive: -38.5%
CCc1ccc(C(C(=O)NC2CCCC2)N(C(=O)/C=C/C(=O)Nc2cc(C)on2)c2ccccc2C)cc1 (stereo not drawn),,inactive: -3.72%
COc1ccc2cc(C3CC(c4cccs4)=NN3S(C)(=O)=O)c(Cl)nc2c1 (stereo not drawn),,inactive: -6.66%
Cc1c(NC(=O)c2ccccc2F)cccc1-c1nc2cccnc2s1,"inconclusive: 39.8 µM [inhibitor, partial curve, poor fit]",
CCOc1ccc(N=C2NC(=O)S/C2=C\c2ccc(OC)cc2)cc1,"inconclusive: 14.1 µM [inhibitor, partial curve, poor fit]",
Cc1ccc(Nc2nc3ccccc3c3nncn23)cc1C,,inactive: 21.1%
COc1ccc2nc(NC(=O)CSCc3c(C)noc3C)sc2c1,"inconclusive: 31.6 µM [inhibitor, partial curve, poor fit]",
CCn1c2ccccc2c2nnc(SCc3cc(=O)n4ccsc4n3)nc21,"inconclusive: 50.1 µM [inhibitor, partial curve, poor fit]",
CCN(CC)S(=O)(=O)c1ccc(OC)c(NC(=O)Cc2cccs2)c1,"inconclusive: 89.1 µM [inhibitor, single point]",
COc1ccc(N(C)C(=O)CCS(=O)(=O)c2cccc3nsnc23)cc1,"inactive and inconclusive: 89.1 µM [inhibitor, single point]",
CC1Cc2ccccc2N1CC(=O)Nc1ccc(Cl)c(S(=O)(=O)N(C)C)c1 (stereo not drawn),active: 28.2 µM,
CCOC(=O)/C(=N\Nc1ccccc1)S(=O)(=O)c1ccccc1,"inconclusive: 89.1 µM [inhibitor, single point]",
O=C1OCc2ccc(NS(=O)(=O)c3ccc(C(F)(F)F)cc3)cc21,,inactive: 9.08% [at 102 µM]
COc1cc(/C=N/N2CCCCC2)cc(OC)c1O,active: 22.4 µM,
Cc1ccc(OCCc2csc(N)n2)cc1,"inconclusive: 79.4 µM [inhibitor, single point]",
Nc1nc(-c2ccco2)c(-c2ccco2)s1,"inconclusive: 14.1 µM [inhibitor, partial curve, poor fit]",
Cc1ccc(CC(=O)NCc2ccc(F)cc2)cc1,"inconclusive: 89.1 µM [inhibitor, partial curve, poor fit]",
CCc1nnc(NC(=O)CSc2ccc(-c3ccc(C)cc3)nn2)s1,active: 50.1 µM,
O=c1c(C(c2ccc(F)cc2)c2c(O)nc3n(c2=O)CCCS3)c(O)nc2n1CCCS2,active: 50.1 µM,
O=C(CN1CCN(c2ccccn2)CC1)N1c2ccccc2CCc2ccccc21,active: 8.91 µM,

SMILES,Potency,"activity, negative = inhibition"
Cc1ccc(-n2c(=O)c3c(c4cc(C)ccc4n3C)n(CC(=O)Nc3cc(C)cc(C)c3)c2=O)cc1,,inactive: -7.65%
O=C(COC(=O)CC1Sc2ccccc2NC1=O)NCc1ccccc1 (stereo not drawn),"inconclusive: 1.41 µM [inhibitor, partial curve, poor fit]",
CC(C)(C)N=Cc1cc(-c2ccccc2)sc1O,,inactive: -7.77% [at 12.7 µM]
COc1ccc(N2CCN(C(=O)c3c(C)nn(-c4ccccc4)c3C)CC2)cc1,"inconclusive: 39.8 µM [inhibitor, single point]",
Clc1cnc(Nc2cccnc2)c(Cl)c1,,inactive: -11.8% [at 102 µM]
Cc1ccc(S(=O)(=O)NN=C2CCC(C(C)(C)C)CC2)cc1[N+](=O)[O-] (stereo not drawn),active: 35.5 µM,
CCN(CC)/C(N)=N/c1nc(C)cc(C)n1,"inconclusive: 89.1 µM [inhibitor, partial curve, poor fit]",
CCC(Sc1nc2ccncc2[nH]1)C(=O)Nc1ccc(C)c(Cl)c1 (stereo not drawn),"inconclusive: 79.4 µM [inhibitor, single point]",
CC1Cn2cc(C(=O)Nc3cccc(C(F)(F)F)c3)c(=O)c3c(Cl)ccc(c32)O1 (stereo not drawn),,inactive: 4.07%
Nc1ccc(Cc2ccc(N)c(C(=O)O)c2)cc1C(=O)O,"inconclusive: 89.1 µM [inhibitor, single point]",
CN(C)c1ccc(NS(=O)(=O)c2cccc(Cl)c2)cc1,"inconclusive: 0.631 µM [inhibitor, single point]",
c1ccc(CN2CCN(c3nc(-c4ccccn4)nc4ccccc34)CC2)cc1,"inconclusive: 39.8 µM [inhibitor, single point]",
O=C(NCc1ccco1)c1ccc(Cn2cc([N+](=O)[O-])cn2)o1,,inactive: 18.8%
Cc1ccc(NC(=S)Nc2cccc(-c3n[nH]c(=S)o3)c2)cc1,active: 50.1 µM,
CN(C)S(=O)(=O)c1cccc(NC(=S)Nc2ccc(Cl)cc2Cl)c1,,inactive: -50.9%
O=S(=O)(NCc1nnc2ccccn12)c1ccc(F)cc1,"inconclusive: 35.5 µM [inhibitor, partial curve]",
CN(C(=O)c1cnc2n(c1=O)CCS2)C1CCCCC1,"inconclusive: 89.1 µM [inhibitor, single point]",
NC(=O)/C(=C\c1ccccc1)NC(=O)/C=C/c1ccccc1,"inconclusive: 1.41 µM [inhibitor, partial curve, poor fit]",
Cc1cc(C)cc(C(=O)Oc2cc(C)[nH]c(=O)c2[N+](=O)[O-])c1,,inactive: -13.3% [at 102 µM]
CN1CCC(N(C)C(=S)NC(=O)c2cc(-c3cccc(Br)c3)nc3ccccc23)CC1,"inconclusive: 50.1 µM [inhibitor, partial curve, poor fit]",
COc1cc(Cl)cc(C(c2c(C(=O)O)[nH]c3ccccc23)c2c(C(=O)O)[nH]c3ccccc23)c1O,"inconclusive: 79.4 µM [inhibitor, single point]",
CCNC(=O)NC(=O)CSc1nc2ccccc2n1CC(C)C,"inconclusive: 79.4 µM [inhibitor, single point]",
